Measured values reported in PubChem BioAssay AID493208 (National Center for Advancing Translational Sciences (NCATS), 2011).
The campaign covered roughly 44,000 compounds. About 340 (0.77%) were called active. Inconclusive results (about 5%) are left out. Calls come from the whole dose curve; as a rule, active = well fitted inhibition curve with a large enough effect; inconclusive = small, poorly fitted or top-dose-only effect; inactive = flat fitted curve, though single readings scatter. The list shows a part of the results.

Assay: Acumen qHTS Assay for Inhibitors of the mTORC1 Signaling Pathway in MEF (Tsc2-/-, p53-/-) Cells: Sytravon;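 note: plate controls were DMSO for no effect and rapamycin for full effect; nearly all actives have a fitted effect of over 50% in size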
Settings: phospho-rpS6 immunofluorescence/PI, 24 h; series mostly up to 38.3 µM; activity change, negative = inhibition: at the top concentration
Method in brief: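 Cell-based qHTS: Tsc2-/- p53-/- MEF, 24 h cpd, 37 °C; fix/perm, anti-phospho-S6 Alexa-488 + PI; Acumen 488 nm scan; pS6/PI ratio, % positive cells; rapamycin 7.5 nM = inhibition ref; PI count = viability.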

Activity change, negative = inhibition, inactive:
COc1cc2c(cc1OC)CN(C(=O)Nc1ccccc1)CC2 -8.46%
Cc1cccc(N2CCN(S(=O)(=O)c3c(C)nc4scc(C)n4c3=O)CC2)c1C 3.04%
COc1ccccc1NC(=O)c1ccc(COc2ccc(C)c(C)c2)o1 -2%
CCCCn1c(=O)c2oc3ccccc3c2n(CC(=O)Nc2ccc(CC)cc2)c1=O 1.04%
CCn1cc2nc(SCc3cc(C)ccc3C)n(CCc3ccccc3)c(=O)c2n1 4.92%
CC1CCN(C(c2ccccc2)c2sc3nc(-c4ccco4)nn3c2O)CC1 (configuration not stated) 1.14%
O=C(CSc1nc(-c2ccccc2)cn1-c1ccccc1F)Nc1ccc(F)cc1 -9.79%
COc1ccc(CNS(=O)(=O)c2cc3c(cc2Cl)N(C(C)=O)CCO3)cc1 4.33%
COc1cc(NC(=O)CN2CCN(S(=O)(=O)c3ccc(Br)cc3)CC2)cc(OC)c1 -3.92%
Cc1ccc(Nc2cc(C(=O)NCCc3ccccc3)c3ccccc3n2)c(C)c1 -9.09%
COc1ccc(NC(=O)CSc2nc(-c3cc(OC)c(OC)c(OC)c3)[nH]c2-c2ccc(F)cc2)cc1 -10.6%
O=C(Cn1nc(-c2ccc(Cl)cc2)c2ccccc2c1=O)Nc1cccc(Br)c1 -20.8%
CCCCC(=O)Nc1c(C(=O)N2CCN(c3ccccc3F)CC2)oc2ccccc12 -12.5%
COc1ccc(CNC(=O)C2CCN(c3nnc(-n4c(C)ccc4C)s3)CC2)c(OC)c1 0.0796%
Cc1nc2ccc(S(=O)(=O)N(C)CC(=O)Nc3ccc(C(C)C)cc3)cc2s1 -11.8%
CC1CCN(S(=O)(=O)c2ccc3c(c2)c(=O)c(C(=O)N2CCN(c4cccc(Cl)c4)CC2)cn3C)CC1 2.45%
Cc1ccc(-n2ncc(C(=O)NCCN3CCc4ccccc4C3)c2C2CCN(C(=O)OC(C)(C)C)CC2)cc1C -4.61%
COc1ccc(NC(=O)CN2CCN(CC(=O)Nc3ccccc3F)CC2)c(OC)c1 5.72%
O=c1c2cc3c(cc2nc2sc(Nc4ccccc4)nn12)OCO3 3.66%
COc1ccc(-c2nc(SCC(=O)NC(C)CCc3ccccc3)n[nH]2)cc1 (configuration not stated) -23.5%
COc1ccc(S(=O)(=O)c2c(Nc3cccc(C)c3C)sc(C(=O)c3ccccc3)c2N)cc1 -2.21%
CCOC(=O)c1c(C)oc2nc(C)nc(NCCc3ccc(OCC)c(OCC)c3)c12 2.52%
CCN(c1ccccc1)S(=O)(=O)c1c(C)nc2scc(C)n2c1=O -3.04%
COc1ccc(N2CCN(c3ncnc4c3cnn4-c3ccc(F)cc3)CC2)cc1 -7.13%
CCc1ccccc1NC(=O)CCCSc1nc(-c2ccco2)cc(C(F)(F)F)n1 -2.31%
COc1ccc(NC(=O)C2=CC(c3ccco3)=NS(=O)(=O)N2C)cc1OC 3.59%
CCN(c1ccccc1)S(=O)(=O)c1nnc(NC(=O)c2ccccc2OC)s1 3.18%
CCOCCc1nn2c(=O)cc(COC(=O)c3ccc(NC(=O)C4CCCCC4)cc3)nc2s1 0%
Cc1cc(NC(=O)c2ccc3c(c2)N(Cc2cccc(Cl)c2)C(=O)c2ccccc2S3(=O)=O)ccc1Br 3.15%
O=C(CS(=O)(=O)c1cccc2nsnc12)N1CCN(c2ccccc2F)CC1 0.0433%
COc1ccccc1CNc1nc2ccc(C)cc2n2nnnc12 0%
Cc1nn(-c2ccccc2)c(OC(=O)c2ccccc2Br)c1S(=O)(=O)c1ccccc1 -2.21%
O=C1CC(c2c(Cl)cccc2Cl)c2c(ccc3ccccc23)N1 (configuration not stated) -24.5%
CC1=C(C(=O)Nc2ccccc2Cl)C(c2cccc(O)c2)n2ncnc2N1 (configuration not stated) 0.878%
COc1cc(C2C(=O)N(C3CCCCC3)CC(=O)N2CCc2ccccc2)ccc1OC(C)C (configuration not stated) 1.25%
CCCCN(C)CCCNC(=O)C1CCN(S(=O)(=O)CCC)CC1 8.37%
O=C(Nc1ccccc1C(F)(F)F)c1ncoc1-c1ccco1 0%
COc1ccc(-c2cc(C(F)(F)F)nc(SCCC(=O)Nc3ccc(NC(C)=O)cc3)n2)cc1 -11.3%
CCN(CC)c1ccc(CNCCCSc2nnnn2C)cc1 0.771%
COc1ccc(CNC(=O)c2cc(Nc3ccccc3C)nc3ccccc23)cc1 -3.22%
COCCNc1nc2c(c(=O)n(C)c(=O)n2C)n1Cc1c(F)cccc1Cl -1.05%
Cc1oc2ncn(C)c(=O)c2c1C(=O)N1CCN(c2cccc(C(F)(F)F)c2)CC1 -9.35%
COc1ccc(Cl)cc1NC(=O)CSc1cn(CC(=O)N2CCCCC2)c2ccccc12 -15.8%
CCOc1ccc(CN2C(=O)c3ccccc3Sc3ccc(C(=O)NCc4ccco4)cc32)cc1 0.484%
Cc1oc(-c2cccc(Cl)c2)nc1CN1CCC(C(=O)NC(C)c2ccccc2)CC1 (configuration not stated) -0.497%
CCc1ccc(NC(=O)CC2C(=O)NCCN2C(=O)c2ccc(F)cc2)cc1 (configuration not stated) -3.79%
COc1ccc(S(=O)(=O)c2c(Nc3ccccc3F)sc(C(=O)c3cccc(OC)c3)c2N)cc1 -26.7%
CCc1ccc(NC(=O)NCCc2c(C)nn(C)c2C)cc1 0%
COc1cccc(C2CC(=O)Nc3c2ccc(C)c3C)c1OC (configuration not stated) 4.78%
Cc1cccc(NC(=O)CSc2nnc(NC(=O)Nc3ccccc3)s2)c1C 0.24%
CSc1ccc(CNC(=O)Cn2nc(N3CCN(c4ccccc4)CC3)ccc2=O)cc1 -5.93%
Cc1ccccc1CNC(=O)C(=O)NCC(c1ccco1)S(=O)(=O)c1cccs1 (configuration not stated) -0.478%
COc1cccc(NC(=O)CSc2nnc(-c3cccc(OC)c3)o2)c1 -14.8%
O=C(Nc1ccc2nc(SCC(=O)N3CCc4ccccc43)sc2c1)c1ccccc1 -3.75%
Cc1ccc2sc(-c3ccc(N)cc3)nc2c1 -11.4%
CCc1ccc(-n2c(=O)c3sc4ccccc4c3n(CC(=O)N(CC)Cc3ccccc3)c2=O)cc1 -8.79%
CCC(=O)N1CCc2cc(CNC(=O)c3ccccc3C)ccc21 -2.23%
CCCCNC(=O)CSc1nc2nc(C)c(Cc3c(F)cccc3Cl)c(C)n2n1 -9.92%
CCOC(=O)c1c(C)[nH]c(C)c1S(=O)(=O)N1CCCC(C(=O)Nc2cc(C)ccc2C)C1 (configuration not stated) -0.522%
O=C(NC1CC(=O)N(c2cccc(F)c2)C1)c1ccc2c(c1)OCO2 (configuration not stated) 2.15%
Cc1ccc(OCC(=O)Nc2ccccc2C(=O)OCc2cc(=O)n3ccsc3n2)cc1 1.63%
O=C(C1CCC(Cn2c(=O)c3sccc3n(Cc3ccccc3)c2=O)CC1)N1CCOCC1 (configuration not stated) -5.69%
